PMC4336329 (PLoS ONE, 2015)
Hit rate of the full screen: of about 310,000 compounds, about 14,000 (4.5%) showed an effect of 50% or more. Effects have a minus sign here. This is one part of the list.

Biological target: human ether-à-go-go-related gene (hERG) potassium channel (human, UniProt Q12809)
Assay: primary screen, population patch clamp on CHO cells stably expressing hERG
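Also: peak tail current of the secondary pulse compared with the same well before compound.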

human ether-à-go-go-related gene (hERG) potassium channel, sequence (Q12809 whole entry, looked up): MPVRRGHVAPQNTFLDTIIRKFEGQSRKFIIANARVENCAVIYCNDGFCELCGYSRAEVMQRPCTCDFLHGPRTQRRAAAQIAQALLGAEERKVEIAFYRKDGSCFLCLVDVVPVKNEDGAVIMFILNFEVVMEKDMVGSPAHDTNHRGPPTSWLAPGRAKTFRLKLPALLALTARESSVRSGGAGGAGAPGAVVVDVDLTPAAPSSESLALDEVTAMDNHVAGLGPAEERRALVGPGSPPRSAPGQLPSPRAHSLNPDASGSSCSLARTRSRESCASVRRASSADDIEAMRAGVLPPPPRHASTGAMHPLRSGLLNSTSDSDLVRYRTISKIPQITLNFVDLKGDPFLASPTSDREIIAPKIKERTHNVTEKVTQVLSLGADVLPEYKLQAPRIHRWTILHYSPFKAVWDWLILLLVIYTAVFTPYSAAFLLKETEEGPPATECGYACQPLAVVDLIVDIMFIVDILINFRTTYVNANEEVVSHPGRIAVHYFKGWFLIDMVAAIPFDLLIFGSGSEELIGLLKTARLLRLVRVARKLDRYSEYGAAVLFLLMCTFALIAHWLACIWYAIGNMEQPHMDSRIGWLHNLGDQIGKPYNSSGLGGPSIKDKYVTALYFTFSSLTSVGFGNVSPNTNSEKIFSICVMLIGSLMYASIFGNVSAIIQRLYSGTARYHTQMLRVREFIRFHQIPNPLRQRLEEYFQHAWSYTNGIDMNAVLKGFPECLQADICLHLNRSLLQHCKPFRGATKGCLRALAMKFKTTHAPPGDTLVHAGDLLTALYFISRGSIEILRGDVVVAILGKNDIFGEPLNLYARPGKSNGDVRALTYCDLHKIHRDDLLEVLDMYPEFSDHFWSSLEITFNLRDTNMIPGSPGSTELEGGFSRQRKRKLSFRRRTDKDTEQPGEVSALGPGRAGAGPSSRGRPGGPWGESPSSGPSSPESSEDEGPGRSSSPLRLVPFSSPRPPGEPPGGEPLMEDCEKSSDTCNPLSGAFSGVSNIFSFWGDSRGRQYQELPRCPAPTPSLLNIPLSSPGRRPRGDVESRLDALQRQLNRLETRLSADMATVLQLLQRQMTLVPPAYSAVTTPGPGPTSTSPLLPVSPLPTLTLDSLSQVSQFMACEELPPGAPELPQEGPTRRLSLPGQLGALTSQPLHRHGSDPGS

SMILES | hERG current change (%, negative = inhibition) at 10uM [%]
CCOc1ccc2nc(SCC(=O)c3ccc(O)cc3O)sc2c1 | 14.5
CC1CCc2sc(C(=O)N(C)CC(=O)Nc3cccc(F)c3)cc2C1 (centres unmarked) | -11.3
CC1(C)NC(=O)N(CCCCOc2ccc3c(c2)CCC3)C1=O | 1.84
Cc1ccc(CCNC(=O)CCS(=O)(=O)c2ccc(Br)cc2)cc1 | -6.65
N#Cc1cc2c(nc1SCc1ccc(Cl)cc1)CCCC2 | 13.2
O=C(CCl)NCc1c(Cl)cccc1-n1cccc1 | 3.87
CCC(C)Sc1nnc(CNC(=O)C23CC4CC(CC(C4)C2)C3)n1C1CCCCC1 (centres unmarked) | 6.12
C/C(N)=C(/C#N)C(=O)CSc1nc2ccccc2c(=O)n1CCCOC(C)C | -21.2
CCOC(=O)C1=C(C)NC(C)=C(C(=O)OCC)C1C(=O)OCC(=O)N1CC(C)OC(C)C1 (centres unmarked) | 17.5
O=C(Nc1ccc(Cl)cc1N1CCOCC1)C1CCCCC1 | -4.12
CC(C)(C)OC(=O)NNC(=S)NC1CCCCC1 | 21.4
CCOC(=O)/C(C#N)=C/c1ccc(SC)cc1 | 20.9
Cc1cccc(OCc2nnc(SCC(=O)N3CCN(c4ccccc4)CC3)o2)c1C | -5.21
Cc1cccc(N/C(=N\S(=O)(=O)c2ccccc2)C(F)(F)F)c1 | 2.55
O=C(O)c1ccc(CNS(=O)(=O)c2ccc3ccccc3c2)cc1 | 21.7
CCOC(=O)c1c(C)oc2cc(Br)c(O)c(Br)c12 | 8.34
CCCn1nnnc1SCC(=O)Nc1ccc(F)cc1 | -25.3
CCOC(=O)C(O)(c1ccc(N(CC)S(=O)(=O)c2ccc(C)cc2)cc1)C(F)(F)F (centres unmarked) | -36.3
CC(/C=C/c1ccco1)=N\NC(=O)c1cccnc1 | 12.5
CC(OC(=O)/C=C/c1ccc2ccccc2n1)C(=O)NCc1ccccc1 (centres unmarked) | 11
Cc1oc(-c2ccccc2F)nc1CS(=O)CC(=O)NC1CCCCC1 (centres unmarked) | 9.5
O=C(O)CCCNS(=O)(=O)c1ccc(F)cc1 | 28.8

SMILES | hERG current change (%, negative = inhibition) at 10uM [%]
O=C(NC12CC3CC(CC(C3)C1)C2)c1cnccn1 | 7.83
CN(C)c1cc[n+](CC(O)C[n+]2ccc(N(C)C)cc2)cc1.[O-][Cl+3]([O-])([O-])[O-] | 15.9
COc1cccc(-c2sc3ccc(OC)cc3c2C#CCC(C)O)c1 (centres unmarked) | 25.8
O=C(O)C1CCC(Cn2c(SCc3cc(=O)n4cc(Cl)ccc4n3)nc3ccsc3c2=O)CC1 (centres unmarked) | -1.89
Cc1ccc(-c2nn3c(C)nnc3c3ccccc23)cc1S(=O)(=O)N1CCN(CCO)CC1 | -74.5
Cn1cc(Cl)c(C(=O)NNC(=S)NCc2ccco2)n1 | 3.95
O=C(N/N=C\c1ccc(COc2ccc([N+](=O)[O-])cc2)o1)c1ccc(Cl)cc1 | -67.6
Cn1c2ccc(F)cc2c2ncn(Cc3ccco3)c(=O)c21 | -13.9
Cc1ccc(S(=O)(=O)NN2C(=O)c3ccccc3NC2c2ccccc2O)cc1 (centres unmarked) | -9.48
C[C@@H]1C[C@@H]2O[C@H]2/C=C\C=C\C(=O)Cc2c(Cl)c(O)cc(O)c2C(=O)O1 | 14.2
CCOC(=O)Cc1csc(NC(=O)COc2ccc(OC)cc2)n1 | -18.1
CCC1=C2CC[C@H]3C(=O)N(c4ccccc4)C(=O)[C@H]3[C@H]2[C@@]2(C)C(=NCc3ccccc3)OC(=O)N2C1=O | -0.148
CCC(C)NS(=O)(=O)c1cc2c3c(c1)CCC(=O)N3CCC2 (centres unmarked) | 28.5
C#CCNC(=O)C1=C[C@H](C2CCCCC2)C[C@H](OCCCCO)O1 | -5.39
Cc1ccc(C(=O)Nc2ncc(Cc3ccc(F)cc3)s2)o1 | -2.85
O=C(CSc1nnc(-c2ccc(Cl)cc2Cl)n1C1CCCCC1)N1CCCC1 | -20.8
COC(=O)C1=C(c2ccc(C(C)=O)cc2)C[C@@H]2CC[C@H]1N2C(=O)N1CCC(O)(c2ccc(Cl)cc2)CC1 | -73.6
CC1(C#N)c2ccccc2C(Br)=CN1C(=O)c1ccccc1 (centres unmarked) | 0.996
Cc1cccc(C)c1NC(=S)N(CCCN1CCCCC1)Cc1ccco1 | -25.7
COP(=O)(OC)C(NC(=O)C(C)(C)C)=C(Cl)Cl | 4.27
CC1(C)Cc2c(C#N)c(NCCc3ccccc3)nc(-c3ccco3)c2CO1 | 12.5
N#CCC(=O)Nc1ccc(C(=O)OCC(=O)c2ccc3c(c2)NC(=O)CO3)cc1 | 6.61
